Experimental data taken from the supplement of paper PMC3334620.
Over roughly 33,000 sequences, “E-score (-0.5 to 0.5)” has its median near -0.012; the highest 2% begin near 0.29. The list shows a part of the results.

molecular target: T1, Ybr033w (UniProt P38073); experiment: PBM E-score (8-mer binding enrichment) (E-score (-0.5 to 0.5)); higher = stronger / more preferred TF binding; most listed sequences are background and not binding sites; conditions: protein concentration: 200 nM; construct: GST-full length
T1 sequence: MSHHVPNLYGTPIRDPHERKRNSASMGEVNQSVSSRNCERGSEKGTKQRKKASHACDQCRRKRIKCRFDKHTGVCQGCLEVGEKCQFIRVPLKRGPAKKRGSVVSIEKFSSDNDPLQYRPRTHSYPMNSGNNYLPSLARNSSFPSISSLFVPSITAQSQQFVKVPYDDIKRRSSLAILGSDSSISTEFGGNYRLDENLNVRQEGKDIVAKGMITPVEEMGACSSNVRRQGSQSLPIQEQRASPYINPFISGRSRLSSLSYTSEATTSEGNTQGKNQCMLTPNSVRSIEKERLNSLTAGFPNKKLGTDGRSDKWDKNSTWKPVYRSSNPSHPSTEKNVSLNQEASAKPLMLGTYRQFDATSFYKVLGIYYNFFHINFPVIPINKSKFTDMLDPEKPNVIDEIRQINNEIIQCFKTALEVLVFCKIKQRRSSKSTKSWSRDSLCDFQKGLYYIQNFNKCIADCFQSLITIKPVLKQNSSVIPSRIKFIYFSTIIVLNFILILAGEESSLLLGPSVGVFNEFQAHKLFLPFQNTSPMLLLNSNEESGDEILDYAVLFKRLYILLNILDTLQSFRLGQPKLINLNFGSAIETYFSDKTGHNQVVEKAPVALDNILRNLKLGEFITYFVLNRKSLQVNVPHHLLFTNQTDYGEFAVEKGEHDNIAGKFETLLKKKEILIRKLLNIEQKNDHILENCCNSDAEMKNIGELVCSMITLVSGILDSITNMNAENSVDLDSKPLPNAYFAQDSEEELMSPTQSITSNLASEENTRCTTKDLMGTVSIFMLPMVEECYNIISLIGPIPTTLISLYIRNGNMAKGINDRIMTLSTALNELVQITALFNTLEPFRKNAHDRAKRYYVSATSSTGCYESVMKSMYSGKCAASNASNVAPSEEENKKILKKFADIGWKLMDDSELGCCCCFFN
Method in brief: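 Masliner-normalised scans of fluorescent anti-GST signal were the basis for scoring. That signal came from GST-tagged yeast transcription factors applied at about 100-200 nM to double-stranded universal all-10-mer Agilent arrays on fresh or once-stripped slides. Each ungapped eight-base word, pooled with its reverse complement, received an E-score from the Universal PBM Analysis Suite.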

| Sequence | PBM E-score |
| --- | --- |
| AGTGACGC | -0.14 |
| AATATGAT | 0.317 |
| GTTCCTGA | 0.00623 |
| ATCACGGC | 0.0132 |
| AGTGCAGC | -0.103 |
| ACGATCGA | 0.135 |
| GCATCATA | 0.181 |
| ACATAGGT | 0.192 |
| ATAGAAGA | 0.0886 |
| GACCAACA | 0.139 |
| GACGATAC | -0.0445 |
| TCATAGAA | 0.134 |
| ACACTTGA | -0.0204 |
| CCACATAC | 0.153 |
| AGAGCCCC | -0.188 |
| GAAAGTAC | 0.0791 |
| AGAGCGAG | 0.00631 |
| CCTACGCC | -0.194 |
| GTAGACGA | -0.00753 |
| ACACACCA | 0.111 |
| ATCACGCC | -0.0413 |
| CCGAGCCA | -0.217 |
| AAGTGATC | 0.0429 |
| CTCGGTCA | -0.101 |
| TCAGGAAA | 0.0531 |

| Sequence | PBM E-score |
| --- | --- |
| ATATTGGA | 0.0277 |
| GATTACGC | 0.115 |
| TAGTGGGA | -0.109 |
| ACCCGGGG | -0.237 |
| AGCGAAAG | -0.0481 |
| CATTATCA | 0.138 |
| ACCGCTAA | 0.0615 |
| AGACAATA | 0.16 |
| GCGAGAGC | -0.13 |
| AATTTAAT | 0.319 |
| AATTTGCT | 0.13 |
| CAAATGCA | -0.0284 |
| GCAAATGA | 0.182 |
| CGAAAGAG | 0.0334 |
| TAGTATGA | 0.215 |
| AACTGCTA | 0.0866 |
| GAAAGCGA | 0.101 |
| AACTAAGA | 0.138 |
| GATCTAGA | 0.0239 |
| ACATCCAT | 0.144 |
| AGCCTCTG | -0.347 |
| CAGGTGTC | -0.161 |
| CCCAAAGA | -0.027 |
| AGAATGTC | -0.131 |
| TACGGACA | -0.00729 |

| Sequence | PBM E-score |
| --- | --- |
| ATCTTGTA | 0.0421 |
| ACACAATA | 0.251 |
| TACACGCA | -0.00703 |
| TAAGCCAA | 0.148 |
| GACAGTGA | 0.034 |
| GAACCACA | 0.0884 |
| GAGAACAC | 0.00573 |
| CGCCATAA | -0.0388 |
| TCGAAGCA | -0.184 |
| ATAAGTCC | 0.066 |
| ACCCAGAT | -0.105 |
| CGGACGTC | -0.0543 |
| GACGTGAC | -0.103 |
| ATGGCATC | 0.0234 |
| GGAGCGAA | -0.122 |
| ATCTATTC | 0.132 |
| GTATTTGA | 0.127 |
| TATTAAGA | 0.168 |
| AGATTTCA | 0.156 |
| ACGGGATG | -0.221 |
| CGTCGCAC | -0.104 |
| CCTGTTCC | 0.0589 |
| GGGCAGTA | -0.109 |
| GGGTCACA | -0.245 |
| CGGTACGC | -0.13 |

| Sequence | PBM E-score |
| --- | --- |
| ATAGAAAT | 0.164 |
| CGACTATC | -0.0303 |
| ATCCCCAA | 0.0446 |
| TAGGGCGA | 0.0505 |
| CAAGTCTA | 0.0126 |
| CCTGGTCC | -0.133 |
| TAATGAGA | 0.229 |
| CCCTCCGA | -0.196 |
| AGTGATTA | 0.108 |
| AATCTGAC | 0.0589 |
| CATACTTA | 0.0855 |
| GGCTCTCA | -0.309 |
| AAGATCAG | 0.0479 |
| ACTCGGTA | -0.0263 |
| TAGCCCTA | -0.112 |
| CCTATTCG | -0.149 |
| CGCGCAGC | -0.204 |
| CTCTGATA | 0.214 |
| AAAGTCGA | -0.0286 |
| GAGCACGC | -0.245 |
| ACCGTCTA | -0.106 |
| AATCATAC | 0.215 |
| AACACGCT | 0.0343 |
| CTGTGTCC | -0.0543 |
| CTTTTCTC | 0.0596 |

| Sequence | PBM E-score |
| --- | --- |
| ACTCTAGC | -0.069 |
| ATATCAAC | 0.149 |
| GCTCACAA | 0.0799 |
| ATATATAT | 0.141 |
| CTAGGCTC | -0.293 |
| ACCGCGTG | -0.0934 |
| CGTCCAAC | -0.0161 |
| GTCCCGAA | -0.0465 |
| AAGACACA | 0.00061 |
| ACCGGGTA | 0.00699 |
| CAGCATGA | -0.0259 |
| AAATATCT | 0.295 |
| ACGTCTCT | -0.135 |
| CCATCATC | -0.0153 |
| AACGCTAG | -0.088 |
| CGATGTCA | -0.0145 |
| TCCAGGCA | -0.0372 |
| AGAACGAG | 0.0266 |
| CTGGCGCA | -0.311 |
| GCTTTGCA | -0.164 |
| AACCTTTA | 0.046 |
| CCGTCCTC | -0.208 |
| AAACCGGA | 0.217 |
| CTTACGGC | -0.197 |
| AACACCCC | -0.187 |

| Sequence | PBM E-score |
| --- | --- |
| CTTTTAGA | 0.0355 |
| GTGCCCAC | -0.238 |
| CCAAGTAA | 0.137 |
| CCCCCGCC | -0.288 |
| GACACAGC | -0.0695 |
| GACGAGTA | 0.0188 |
| AGAGTTAT | 0.0933 |
| AGGGTGGA | -0.234 |
| ACTTACGA | 0.219 |
| CAGTGTAG | 0.00295 |
| ATAACCTC | 0.0117 |
| ATAGTATG | 0.196 |
| CACCCGCC | -0.0742 |
| ACCTCAAA | 0.159 |
| TAGGAGGA | 0.0316 |
| CCCTGGCA | -0.268 |
| GAAAAACA | 0.295 |
| GGAACTAC | 0.103 |
| CGGGAAGC | -0.123 |
| GAAGCTCC | 0.0146 |
| CATACAGC | -0.188 |
| CCCAAGCA | -0.0848 |
| GCTCCAGC | -0.092 |
| GGGAGCAA | -0.2 |
| AGTCGTAA | 0.283 |

| Sequence | PBM E-score |
| --- | --- |
| GCCACGGC | -0.199 |
| GGCACGGA | -0.126 |
| CTCTTGTA | -0.0293 |
| CCTCTCTA | -0.294 |
| GGGTACAC | -0.233 |
| GCGCGTGA | 0.0449 |
| AAAACCAC | 0.182 |
| GACGCTTA | -0.151 |
| ACACTAGG | 0.224 |
| CTCCATAC | -0.0423 |
| CGCGCCAG | -0.0849 |
| GGCGGGAC | -0.302 |
| ACCTCGTC | -0.116 |
| GTCCTTTA | -0.252 |
| ACGTAGAT | 0.0816 |
| AGGACCAC | -0.167 |
| GATTCCAC | 0.0982 |
| GGCTTCGA | -0.138 |
| CACAAAGA | 0.0377 |
| GGTGGAAA | -0.00937 |
| GTGCCTCA | -0.15 |
| GGATAATA | 0.349 |
| CTAACATA | 0.237 |
| GTCGCAAC | -0.0869 |
| AAGGTGAC | -0.0795 |

| Sequence | PBM E-score |
| --- | --- |
| AAAGATTC | 0.162 |
| CACGCGGC | -0.127 |
| CTAGAAAA | 0.154 |
| CTCTGTTC | 0.0244 |
| CGATGGGC | -0.192 |
| CAATACTC | 0.193 |
| ATGAGCTC | -0.138 |
| ACTGTCGC | -0.0615 |
| AAGGACAC | -0.00087 |
| TCTGATAA | 0.102 |
| TATCCAAA | 0.0863 |
| GCTAAAGA | 0.106 |
| GGTAAAAA | 0.16 |
| ACGGCTAT | -0.0639 |
| GGGCTCGA | -0.217 |
| AAAATTGG | 0.164 |
| CCGTTGTC | -0.0101 |
| CTGGTTGC | 0.0954 |
| GGTGGTTA | 0.025 |
| CAGTAGAC | 0.0443 |
| GAATTAAC | 0.249 |
| AACACAGA | 0.049 |
| CACGGCGC | -0.00486 |
| GAATCTAA | 0.199 |
| AGCCACTG | -0.103 |

| Sequence | PBM E-score |
| --- | --- |
| CATCCTAC | 0.0917 |
| AAAGGAAT | 0.0153 |
| GCGATTTA | 0.0771 |
| GATAGGGC | -0.0405 |
| AGCTGGCC | -0.179 |
| CCCCCGAA | -0.193 |
| GCCGGAAA | 0.302 |
| CCCGTATC | -0.158 |
| CTAAGGAG | -0.275 |
| TAGTCACA | 0.102 |
| GGTTGCAC | -0.131 |
| GAGCCTCA | -0.143 |
| ACACTGCG | -0.0751 |
| CAAACGGA | -0.0796 |
| AAGGAGGG | -0.167 |
| CTACCTCC | -0.125 |
| AAAGTGCA | 0.147 |
| AAAAAGGC | 0.137 |
| ACCCATAC | 0.0342 |
